This passage reports Ki results from patent US7592316B2, “Peptides as NS3-serine protease inhibitors of hepatitis C virus” (Schering Corporation, priority 2000, dated 2009).

As usually defined, the Ki is the dissociation constant of the complex between target and ligand, obtained from inhibition or displacement.

The assay deals with HCV NS3/NS4A protease (strain 1a) (Hepatitis C virus genotype 1a, UniProt P27958). In words: biochemical. The note with it: Table 5; HCV NS3/NS4A protease, spectrophotometric assay, 30° C., pH 6.5; read-out: Ki* Range.
With `CC(C)(C)NC(=O)N[C@H](C(=O)N1C[C@H]2[C@@H]([C@H]1C(=O)NC(CC1CC1)C(=O)C(N)=O)C2(C)C)C1CCCCC1` (some centres unmarked), the Ki fell in the range of 1 to 100 nM. For `CC1(C)[C@@H]2[C@@H](C(=O)NC(CC3CC3)C(=O)C(N)=O)N(C(=O)[C@@H](NC(=O)O[C@@H]3CCOC3)C3CCCCC3)C[C@@H]21` (some centres unmarked), the Ki lay in the range of 101 to 1000 nM.

Turning to `CC1(C)[C@@H]2[C@@H](C(=O)NC(CC3CC3)C(=O)C(N)=O)N(C(=O)[C@@H](CC(=O)OC3CCOC3)C3CCCCC3)C[C@@H]21` (some centres unmarked), the Ki was in the range of 101 to 1000 nM. The value for `CC(C)OC(=O)N[C@H](C(=O)N1C[C@H]2[C@@H]([C@H]1C(=O)NC(CC1CC1)C(=O)C(N)=O)C2(C)C)C1Cc2ccccc2C1` (some centres unmarked) was 1 to 100 nM. On to `CCCC(NC(=O)[C@@H]1[C@@H]2[C@H](CN1C(=O)[C@@H](NC(=O)NC1CCCCC1)C(C)(C)C)C2(C)C)C(=O)C(N)=O` (some centres unmarked), for which the Ki fell in the range of 101 to 1000 nM.

Consider `C=CCNC(=O)C(=O)C(CCC)NC(=O)[C@@H]1[C@@H]2[C@H](CN1C(=O)[C@@H](NC(=O)OC1CCCC1)C1CCCCC1)C2(C)C` (some centres unmarked), for which the Ki fell in the range of 101 to 1000 nM. Regarding `C=CCNC(=O)C(=O)C(CCC)NC(=O)[C@@H]1[C@@H]2[C@H](CN1C(=O)[C@@H](NC(=O)[C@@H](OC(C)=O)c1ccccc1)C1CCCCC1)C2(C)C` (some centres unmarked), the Ki fell in the range of 101 to 1000 nM. The same measure for `C=CCCC(NC(=O)[C@@H]1[C@H]2[C@@H](CN1C(=O)[C@@H](N)C1CCCCC1)C2(C)C)C(=O)C(=O)NCC=C` (some centres unmarked): > 1000 nM; for `C=CCCC(NC(=O)[C@@H]1[C@H]2[C@@H](CN1C(=O)[C@@H](NC(=O)OC(C)(C)C)C1CCCC1)C2(C)C)C(=O)C(=O)NCC=C` (some centres unmarked): 101 to 1000 nM; for `C=CCNC(=O)C(=O)C(CC(C)C)NC(=O)[C@@H]1[C@H]2[C@@H](CN1C(=O)[C@@H](NC(=O)OC(C)(C)C)C(C)(C)C)C2(C)C` (some centres unmarked): > 1000 nM.

As to `C=CCCC(NC(=O)[C@@H]1[C@H]2[C@@H](CN1C(=O)C(CC1CCCCC1)NC(=O)OC(C)(C)C)C2(C)C)C(=O)C(=O)NCC=C` (some centres unmarked), the Ki was > 1000 nM.

Regarding `C=CCCC(NC(=O)[C@@H]1[C@H]2[C@@H](CN1C(=O)[C@@H](NC(=O)OC(C)(C)C)C(C)CC)C2(C)C)C(=O)C(=O)NCC=C` (some centres unmarked), the Ki was > 1000 nM. The same measure for `C=CCNC(=O)C(=O)C(CCC)NC(=O)[C@@H]1[C@H]2[C@@H](CN1C(=O)[C@@H](NC(=O)OC(C)(C)C)C1CCCC1)C2(C)C` (some centres unmarked): 101 to 1000 nM. On to `C=CCCC(NC(=O)[C@@H]1[C@H]2[C@@H](CN1C(=O)[C@@H](NC(=O)C(O)C(C)C)C1CCCCC1)C2(C)C)C(=O)C(=O)NCC=C` (some centres unmarked), for which the Ki was > 1000 nM. The same measure for `C=CCCC(NC(=O)[C@@H]1[C@H]2[C@@H](CN1C(=O)[C@@H](NC(=O)OC(C)(C)C)C1CCCCC1)C2(C)C)C(=O)C(=O)NCC=C` (some centres unmarked): > 1000 nM; for `C=CCNC(=O)C(=O)C(CCC)NC(=O)[C@@H]1C2C(CN1C(=O)C(CCC(=O)OC(C)(C)C)NC(=O)OCC(C)C)C2(C)C` (some centres unmarked): > 1000 nM. With `C=CCNC(=O)C(=O)C(CCC)NC(=O)[C@@H]1[C@H]2[C@@H](CN1C(=O)[C@@H](NC(=O)OCC(C)C)C1Cc3ccccc3C1)C2(C)C` (some centres unmarked), the Ki lay within 101 to 1000 nM. The same measure for `C=CCNC(=O)C(=O)C(CCC)NC(=O)[C@@H]1[C@H]2[C@@H](CN1C(=O)[C@@H](NC(=O)OC(C)C)C1Cc3ccccc3C1)C2(C)C` (some centres unmarked): 101 to 1000 nM.

On to `C=CCNC(=O)C(=O)C(CCC)NC(=O)[C@@H]1[C@H]2[C@@H](CN1C(=O)[C@@H](NC(=O)OCC(C)(C)C)C1Cc3ccccc3C1)C2(C)C` (some centres unmarked), for which the Ki fell in the range of 101 to 1000 nM.

For `C=CCNC(=O)C(=O)C(CCC)NC(=O)[C@@H]1[C@H]2[C@@H](CN1C(=O)[C@@H](NC(=O)OCc1ccccc1)C1Cc3ccccc3C1)C2(C)C` (some centres unmarked), the Ki is > 1000 nM. The value for `C=CCNC(=O)C(=O)C(CCC)NC(=O)C1C2C(CN1C(=O)C(NC(=O)OCC(C)C)C1CCCC(C(=O)NCc3ccccc3)C1)C2(C)C` (centres unmarked) was > 1000 nM; that for `C=CCNC(=O)C(=O)C(CCC)NC(=O)[C@@H]1[C@H]2[C@@H](CN1C(=O)[C@@H](NC(=O)CC1CCCC1)C1Cc3ccccc3C1)C2(C)C` (some centres unmarked) was > 1000 nM; that for `C=CCNC(=O)C(=O)C(CCC)NC(=O)[C@@H]1[C@H]2[C@@H](CN1C(=O)[C@@H](NC(=O)C(C)(C)C)C1Cc3ccccc3C1)C2(C)C` (some centres unmarked) was > 1000 nM.

Regarding `C=CCNC(=O)C(=O)C(CCC)NC(=O)[C@@H]1[C@H]2[C@@H](CN1C(=O)[C@@H](NC(=O)CCc1ccccc1)C1Cc3ccccc3C1)C2(C)C` (some centres unmarked), the Ki is > 1000 nM. As for `C=CCNC(=O)C(=O)C(CC(C)(C)C)NC(=O)[C@@H]1[C@@H]2[C@H](CN1C(=O)[C@@H](NC(=O)OC(C)(C)C)C(C)(C)C)C2(C)C` (some centres unmarked), the Ki is > 1000 nM. The value for `C=CCCC(NC(=O)[C@@H]1[C@H]2[C@@H](CN1C(=O)[C@@H](NC(=O)CC(C)(C)C)C1CCCCC1)C2(C)C)C(=O)C(=O)NCC=C` (some centres unmarked) was > 1000 nM; that for `C=CCCC(NC(=O)[C@@H]1[C@H]2[C@@H](CN1C(=O)[C@@H](NC(=O)NC(C)(C)C)C1CCCCC1)C2(C)C)C(=O)C(=O)NCC=C` (some centres unmarked) was 101 to 1000 nM; that for `C=CCNC(=O)C(=O)C(CCC)NC(=O)C1C2C(CN1C(=O)C(CCC(=O)O)NC(=O)OCC(C)C)C2(C)C` (centres unmarked) was > 1000 nM.

For the compound `C=CCNC(=O)C(=O)C(CCC)NC(=O)[C@@H]1[C@H]2[C@@H](CN1C(=O)[C@@H](NC(=O)CC(C)(C)C)C1Cc3ccccc3C1)C2(C)C` (some centres unmarked), the Ki is > 1000 nM. As to `C=CCNC(=O)C(=O)C(CCC)NC(=O)[C@@H]1[C@H]2[C@@H](CN1C(=O)[C@@H](NC(=O)Cc1ccccc1)C1Cc3ccccc3C1)C2(C)C` (some centres unmarked), the Ki is > 1000 nM. Turning to `C=CCNC(=O)C(=O)C(CC=C)NC(=O)[C@@H]1[C@H]2[C@@H](CN1C(=O)[C@@H](NC(=O)OC(C)(C)C)C1Cc3ccccc3C1)C2(C)C` (some centres unmarked), the Ki lay in the range of 101 to 1000 nM. The same measure for `C=CCC(NC(=O)[C@@H]1[C@H]2[C@@H](CN1C(=O)[C@@H](CC(=O)OC(C)(C)C)C1Cc3ccccc3C1)C2(C)C)C(=O)C(=O)NCC` (some centres unmarked): > 1000 nM; for `CCCC(NC(=O)[C@@H]1[C@@H]2[C@H](CN1C(=O)[C@@H](NC(=O)OC(C)(C)C)C(C)(C)C)C2(C)C)C(=O)C(=O)NCC(F)(F)F` (some centres unmarked): > 1000 nM. For the compound `CC(C)(C)OC(=O)N[C@H](C(=O)N1C[C@H]2[C@@H]([C@H]1C(=O)NC(CC1CC1)C(=O)C(=O)NCC(F)(F)F)C2(C)C)C1CCCCC1` (some centres unmarked), the Ki is > 1000 nM. Take `C=CCCC(NC(=O)[C@@H]1[C@H]2C[C@H]2CN1C(=O)[C@@H](NC(=O)OC(C)(C)C)C1CCCCC1)C(=O)C(=O)NCC=C` (some centres unmarked): the Ki is > 1000 nM. The same measure for `C=CCCC(NC(=O)[C@@H]1[C@H]2C[C@H]2CN1C(=O)[C@@H](NC(=O)OC(C)(C)C)C1CCCCC1)C(=O)C(=O)NCCC(=O)OC(C)(C)C` (some centres unmarked): > 1000 nM; for `C=CCCC(NC(=O)[C@@H]1[C@@H]2[C@H](CN1C(=O)C(NC(=O)OC(C)(C)C)C1C=CCCCC1)C2(C)C)C(=O)C(=O)NCC=C` (some centres unmarked): 101 to 1000 nM; for `C=CCCC(NC(=O)[C@@H]1[C@@H]2[C@H](CN1C(=O)C(NC(=O)OC(C)(C)C)C1CCCCCC1)C2(C)C)C(=O)C(=O)NCC=C` (some centres unmarked): 101 to 1000 nM. For the compound `C=CCCC(NC(=O)[C@@H]1[C@@H]2[C@H](CN1C(=O)[C@@H](NC(=O)OC(C)(C)C)C1CCCCC1)C2(C)C)C(=O)C(=O)NCC(=O)OC(C)(C)C` (some centres unmarked), the Ki lay within 101 to 1000 nM. With `C=CCNC(=O)C(=O)C(CCC)NC(=O)[C@@H]1CC(c2ccccc2)CN1S(=O)(=O)c1ccc(C)cc1` (some centres unmarked), the Ki is > 1000 nM. The value for `C=CCNC(=O)C(=O)C(CC(C)C)NC(=O)[C@@H]1[C@@H]2[C@H](CN1C(=O)[C@@H](NC(=O)OC(C)(C)C)C1CCCCC1)C2(C)C` (some centres unmarked) was > 1000 nM.
